Laboratory results reported in the supplement of paper PMC3334620.
Whole data set: some 33,000 sequences, median “E-score (-0.5 to 0.5)” near -0.016, cut for the highest 2% near 0.32. Some of the results follow.

target: T1, Stp1 (UniProt B3LFK1); assay: PBM E-score (8-mer binding enrichment) (E-score (-0.5 to 0.5)); higher = stronger / more preferred TF binding; most listed sequences are background and not binding sites; settings: protein concentration: 200 nM; construct: GST-full length
T1 sequence: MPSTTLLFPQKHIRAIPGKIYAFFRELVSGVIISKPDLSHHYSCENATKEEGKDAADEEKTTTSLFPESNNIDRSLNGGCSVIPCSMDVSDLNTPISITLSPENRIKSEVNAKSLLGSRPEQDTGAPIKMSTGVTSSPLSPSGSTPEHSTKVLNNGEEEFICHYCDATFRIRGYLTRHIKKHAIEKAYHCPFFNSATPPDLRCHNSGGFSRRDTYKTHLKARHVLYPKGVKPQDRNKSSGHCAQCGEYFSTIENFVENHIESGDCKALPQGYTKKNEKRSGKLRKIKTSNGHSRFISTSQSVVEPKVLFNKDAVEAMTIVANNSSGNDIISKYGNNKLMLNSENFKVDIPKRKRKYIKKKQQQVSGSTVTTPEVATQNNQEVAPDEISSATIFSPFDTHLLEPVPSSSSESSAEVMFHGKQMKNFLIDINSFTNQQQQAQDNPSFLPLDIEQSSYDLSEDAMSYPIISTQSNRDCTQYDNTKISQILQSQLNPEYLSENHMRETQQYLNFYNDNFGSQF
In short: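 Masliner-normalised scans of fluorescent anti-GST signal were the basis for scoring. That signal came from GST-tagged yeast transcription factors applied at about 100-200 nM to double-stranded universal all-10-mer Agilent arrays on fresh or once-stripped slides. Each ungapped eight-base word, pooled with its reverse complement, received an E-score from the Universal PBM Analysis Suite.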

Row | Sequence | PBM E-score
1 | AACACATT | 0.123
2 | CATGGTCG | -0.0379
3 | GGCAACCC | -0.0607
4 | CCTAAGAC | -0.249
5 | AGGCGGCA | 0.369
6 | AACTCGGG | -0.155
7 | ACCCGCGA | 0.106
8 | AGATGTCG | -0.12
9 | ACTTGGAT | -0.0149
10 | GGATAGGA | -0.202
11 | TGAGTAAA | -0.0202
12 | GAGCAGAA | -0.0386
13 | CGCGCCTA | 0.313
14 | CGTGGAGC | -0.0597
15 | CAGGAATG | -0.0261
16 | ATCCGTAA | -0.09
17 | ACAAGGCG | 0.38
18 | TCGCGCAA | 0.14
19 | TTAAATAA | 0.114
20 | GAGAAAAC | 0.0641
21 | AGAGTAGC | -0.197
22 | AAATTACC | -0.0227

Row | Sequence | PBM E-score
23 | TGGTAACA | 0.0718
24 | GAAAACGA | 0.0433
25 | CTCAGAGC | -0.211
26 | AAAAAAAT | 0.0656
27 | GTATTATA | 0.309
28 | AGACTATG | -0.109
29 | ATAACCGG | -0.144
30 | ATGAGTTC | -0.148
31 | TATCAGAA | 0.22
32 | CTGCAGTC | -0.173
33 | TCCGACCA | -0.164
34 | AATATAGT | 0.0424
35 | ATATGAAA | 0.17
36 | ATAATTGG | -0.0243
37 | CATTAATG | -0.00015
38 | AGAGGCTC | 0.0034
39 | ATTTGTTA | 0.159
40 | GAGATTAA | 0.0466
41 | CCACAGTA | 0.144
42 | ACGGGCAG | 0.0634
43 | CAATGCAC | -0.00094
44 | CGAGCGGA | 0.114

Row | Sequence | PBM E-score
45 | CAGTAATA | 0.186
46 | CTTTTCAC | 0.0444
47 | CTGATTAA | 0.0766
48 | CTTGGTAC | 0.0413
49 | AATATGCC | 0.133
50 | GGGACTAC | -0.275
51 | GAGTTAAA | 0.115
52 | GGAAGGAC | -0.263
53 | GACGCAGA | 0.0186
54 | CATAGATG | -0.0954
55 | GGAGAGCA | -0.263
56 | GAGGGCGC | 0.189
57 | ATCTTATC | 0.0792
58 | CGTCCAAG | 0.0854
59 | TGTCTAAA | 0.217
60 | ACCCACAC | 0.0842
61 | ATCCCAAG | -0.00544
62 | GGGCGCTA | 0.0956
63 | AAATTGCT | -0.00925
64 | CGCAGCAA | -0.0814
65 | AAGTACAG | -0.119
66 | CCTGGGTC | -0.258

Row | Sequence | PBM E-score
67 | AGTTGATG | -0.0271
68 | ATCTGAAG | -0.04
69 | AATCGTTC | 0.0914
70 | GCTATCGA | 0.0387
71 | AGGGCACG | 0.302
72 | AAAGGGTC | -0.0953
73 | TACCGTAA | 0.0576
74 | GCGCGGCA | 0.483
75 | GTAGTCCA | -0.156
76 | CTCCTCAC | -0.154
77 | CTCAATAA | 0.0621
78 | AGTCCAAT | -0.0818
79 | TCAACACA | 0.15
80 | CTAGCCCC | -0.27
81 | ATCAGAGC | 0.0942
82 | ATACGTTA | 0.0463
83 | AACGATAG | -0.00989
84 | GCACTAGA | -0.056
85 | CCTCGGAA | -0.0641
86 | GCTTAGCA | -0.0219
